# Measurements taken from the supplement of paper PMC8728848.
# The list shows a part of the results.
# B1: rAAL-I144G (Agrocybe aegerita), Q6WY08 (protein)
# chain: MQGVNIYNISAGTSVDLAAPVTTGDIVTFFSSALNLNAGAGNPNNTTLNLFAENGAYLLHIAFRLQENVIIFNSRQPDGPWLVEQRVSDVANQFAGIDGKAMVTVFDHGDKYQVVINEKTVIQYTKQISGLTLSLSYNATEETSGFSTVVEAVTYTGLALEHHHHHH
# Legend:
# Assay in all cases: glycan array binding signal (z-score within array); higher = stronger binding
# Conditions in all cases: glycan notation: IUPAC condensed, linker removed; mutation: I144G
# [1] = molecular target: GlcNAc(b1-3)Gal(b1-4)GlcNAc(b1-3)Gal(b1-4)GlcNAc(b1-3)Gal(b1-4)GlcNAc(b1-3)Gal(b1-4)GlcNAc(b1-2)[GlcNAc(b1-3)Gal(b1-4)GlcNAc(b1-3)Gal(b1-4)GlcNAc(b1-3)Gal(b1-4)GlcNAc(b1-3)Gal(b1-4)GlcNAc(b1-6)]Man(a1-6)[GlcNAc(b1-3)Gal(b1-4)GlcNAc(b1-3)Gal(b1-4)GlcNAc(b1-3)Gal(b1-4)GlcNAc(b1-3)Gal(b1-4)GlcNAc(b1-2)Man(a1-3)]Man(b1-4)GlcNAc(b1-4)[Fuc(a1-6)]GlcNAc
# Summary of the method: (§1)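 Glycan array binding is given as a within-array Z-score, which can be read as non-binding when negative. The arrays, 3228 of them, came from the Consortium for Functional Glycomics database and were retained only where the protein sequence was available. Z-scores were averaged across arrays of the same protein sequence at different concentrations or buffers and across linkers.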
# [2] = molecular target: GlcNAc(b1-3)Gal(b1-4)GlcNAc(b1-3)Gal(b1-4)GlcNAc(b1-3)GalNAc
# Summary of the method: as §1
# [3] = molecular target: GlcNAc(b1-3)Gal(b1-4)GlcNAc(b1-3)GalNAc
# Summary of the method: as §1
# [4] = molecular target: GlcNAc(b1-3)Gal(b1-4)GlcNAc(b1-3)[GlcNAc(b1-3)Gal(b1-4)GlcNAc(b1-3)]GalNAc
# Summary of the method: as §1
# [5] = molecular target: GlcNAc(b1-3)Gal(b1-4)GlcNAc(b1-6)[Gal(b1-3)]GalNAc
# Summary of the method: as §1
# [6] = molecular target: GlcNAc(b1-3)Gal(b1-4)GlcNAc(b1-6)[GlcNAc(b1-3)Gal(b1-3)]GalNAc
# Summary of the method: as §1
# [7] = molecular target: GlcNAc(b1-3)Gal(b1-4)GlcNAc(b1-6)[GlcNAc(b1-3)]Gal(b1-4)GlcNAc
# Summary of the method: as §1
# [8] = molecular target: GlcNAc(b1-3)GalNAc
# Summary of the method: as §1
# [9] = molecular target: GlcNAc(b1-3)Man
# Summary of the method: as §1
# [10] = molecular target: GlcNAc(b1-3)[GlcNAc(b1-4)][GlcNAc(b1-6)]GlcNAc
# Summary of the method: as §1
# [11] = molecular target: GlcNAc(b1-3)[GlcNAc(b1-6)]Gal(b1-4)GlcNAc
# Summary of the method: as §1
# [12] = molecular target: GlcNAc(b1-3)[GlcNAc(b1-6)]GalNAc
# Summary of the method: as §1
# [13] = molecular target: GlcNAc(b1-4)Gal(b1-4)GlcNAc
# Summary of the method: as §1
# [14] = molecular target: GlcNAc(b1-4)GlcNAc
# Summary of the method: as §1
# [15] = molecular target: GlcNAc(b1-4)GlcNAc(b1-4)GlcNAc
# Summary of the method: as §1
# [16] = molecular target: GlcNAc(b1-4)GlcNAc(b1-4)GlcNAc(b1-4)GlcNAc(b1-4)GlcNAc
# Summary of the method: as §1
# [17] = molecular target: GlcNAc(b1-4)GlcNAc(b1-4)GlcNAc(b1-4)GlcNAc(b1-4)GlcNAc(b1-4)GlcNAc
# Summary of the method: as §1
# [18] = molecular target: GlcNAc(b1-4)[GlcNAc(b1-6)]GalNAc
# Summary of the method: as §1
# [19] = molecular target: GlcNAc(b1-6)Gal(b1-4)GlcNAc
# Summary of the method: as §1
# [20] = molecular target: GlcNAc(b1-6)GalNAc
# Summary of the method: as §1
# [21] = molecular target: GlcNAc6S(b1-3)Gal(b1-4)GlcNAc
# Summary of the method: as §1
# [22] = molecular target: Kdn(a2-3)Gal(b1-3)GalNAc
# Summary of the method: as §1
# [23] = molecular target: Kdn(a2-3)Gal(b1-3)GlcNAc
# Summary of the method: as §1
# [24] = molecular target: Kdn(a2-3)Gal(b1-4)Glc
# Summary of the method: as §1
# [25] = molecular target: Kdn(a2-3)Gal(b1-4)GlcNAc
# Summary of the method: as §1
# [26] = molecular target: Kdn(a2-3)Gal(b1-4)[Fuc(a1-3)]GlcNAc
# Summary of the method: as §1
# [27] = molecular target: Kdn(a2-6)Gal(b1-4)GlcNAc
# Summary of the method: as §1
# [28] = molecular target: Man(a1-2)Man(a1-2)Man(a1-3)Man
# Summary of the method: as §1
# [29] = molecular target: Man(a1-2)Man(a1-2)Man(a1-6)[Man(a1-3)]Man
# Summary of the method: as §1
# [30] = molecular target: Man(a1-2)Man(a1-3)Man
# Summary of the method: as §1
# [31] = molecular target: Man(a1-2)Man(a1-3)[Man(a1-2)Man(a1-6)]Man
# Summary of the method: as §1
# [32] = molecular target: Man(a1-2)Man(a1-3)[Man(a1-2)Man(a1-6)]Man(a1-6)[Man(a1-2)Man(a1-2)Man(a1-3)]Man
# Summary of the method: as §1
# [33] = molecular target: Man(a1-2)Man(a1-3)[Man(a1-2)Man(a1-6)]Man(a1-6)[Man(a1-2)Man(a1-2)Man(a1-3)]Man(b1-4)GlcNAc(b1-4)GlcNAc
# Summary of the method: as §1
# [34] = molecular target: Man(a1-2)Man(a1-3)[Man(a1-6)]Man(a1-6)[Man(a1-2)Man(a1-3)]Man(b1-4)GlcNAc(b1-4)GlcNAc
# Summary of the method: as §1
# [35] = molecular target: Man(a1-2)Man(a1-6)[Man(a1-3)]Man(a1-6)[Man(a1-2)Man(a1-2)Man(a1-3)]Man
# Summary of the method: as §1
# [36] = molecular target: Man(a1-2)Man(a1-6)[Man(a1-3)]Man(a1-6)[Man(a1-2)Man(a1-2)Man(a1-3)]Man(b1-4)GlcNAc(b1-4)GlcNAc
# Summary of the method: as §1
# [37] = molecular target: Man(a1-3)[Man(a1-6)]Man
# Summary of the method: as §1
# [38] = molecular target: Man(a1-3)[Man(a1-6)]Man(a1-6)[Man(a1-2)Man(a1-3)]Man(b1-4)GlcNAc(b1-4)GlcNAc
# Summary of the method: as §1
# [39] = molecular target: Man(a1-3)[Man(a1-6)]Man(a1-6)[Man(a1-3)]Man
# Summary of the method: as §1
# [40] = molecular target: Man(a1-3)[Man(a1-6)]Man(a1-6)[Man(a1-3)]Man(b1-4)GlcNAc(b1-4)GlcNAc
# Summary of the method: as §1
# [41] = molecular target: Man(a1-3)[Man(a1-6)]Man(b1-4)GlcNAc(b1-4)GlcNAc
# Summary of the method: as §1
# [42] = molecular target: Man(a1-3)[Man(a1-6)]Man(b1-4)GlcNAc(b1-4)[Fuc(a1-6)]GlcNAc
# Summary of the method: as §1
# [43] = molecular target: Man(a1-6)Man
# Summary of the method: as §1
# [44] = molecular target: Man(b1-4)GlcNAc
# Summary of the method: as §1
# [45] = molecular target: MurNAc(b1-4)GlcNAc
# Summary of the method: as §1
binder,measurement,setting,value
B1,glycan array binding signal (z-score),[1],-0.035
same,glycan array binding signal (z-score),[2],-0.14
same,glycan array binding signal (z-score),[3],-0.092
same,glycan array binding signal (z-score),[4],-0.101
same,glycan array binding signal (z-score),[5],-0.113
same,glycan array binding signal (z-score),[6],-0.105
same,glycan array binding signal (z-score),[7],-0.157
same,glycan array binding signal (z-score),[8],-0.106
same,glycan array binding signal (z-score),[9],-0.122
same,glycan array binding signal (z-score),[10],-0.077
same,glycan array binding signal (z-score),[11],-0.068
same,glycan array binding signal (z-score),[12],-0.17
same,glycan array binding signal (z-score),[13],-0.02
same,glycan array binding signal (z-score),[14],-0.172
same,glycan array binding signal (z-score),[15],-0.174
same,glycan array binding signal (z-score),[16],-0.154
same,glycan array binding signal (z-score),[17],-0.209
same,glycan array binding signal (z-score),[18],-0.144
same,glycan array binding signal (z-score),[19],-0.107
same,glycan array binding signal (z-score),[20],-0.16
same,glycan array binding signal (z-score),[21],-0.006
same,glycan array binding signal (z-score),[22],-0.044
same,glycan array binding signal (z-score),[23],-0.016
same,glycan array binding signal (z-score),[24],-0.084
same,glycan array binding signal (z-score),[25],-0.163
same,glycan array binding signal (z-score),[26],-0.106
same,glycan array binding signal (z-score),[27],-0.099
same,glycan array binding signal (z-score),[28],0
same,glycan array binding signal (z-score),[29],-0.102
same,glycan array binding signal (z-score),[30],-0.075
same,glycan array binding signal (z-score),[31],-0.162
same,glycan array binding signal (z-score),[32],-0.099
same,glycan array binding signal (z-score),[33],-0.201
same,glycan array binding signal (z-score),[34],-0.113
same,glycan array binding signal (z-score),[35],-0.073
same,glycan array binding signal (z-score),[36],-0.006
same,glycan array binding signal (z-score),[37],-0.024
same,glycan array binding signal (z-score),[38],0.022
same,glycan array binding signal (z-score),[39],-0.175
same,glycan array binding signal (z-score),[40],-0.12
same,glycan array binding signal (z-score),[41],-0.094
same,glycan array binding signal (z-score),[42],-0.08
same,glycan array binding signal (z-score),[43],-0.179
same,glycan array binding signal (z-score),[44],-0.09
same,glycan array binding signal (z-score),[45],-0.17
